# Test results as given in the supplement of paper PMC8728848.
# Some of the results follow.
# Tests used:
# Experiment in all cases: glycan array binding signal (z-score within array); higher = stronger binding
# Conditions in all cases: glycan notation: IUPAC condensed, linker removed
# [1] = target: Gal6S(b1-4)Glc6S
# Summary of the method: (§1)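 From the Consortium for Functional Glycomics database, 3228 arrays were curated, keeping only those whose protein sequence was available. Binding is given as a within-array Z-score averaged across arrays sharing a protein sequence and across linkers. Negative Z-scores can be read as non-binding.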
# [2] = target: Gal6S(b1-4)GlcNAc
# Summary of the method: as §1
# [3] = target: Gal6S(b1-4)GlcNAc6S
# Summary of the method: as §1
# [4] = target: GalNAc(a1-3)Gal
# Summary of the method: as §1
# [5] = target: GalNAc(a1-3)GalNAc
# Summary of the method: as §1
# [6] = target: GalNAc(a1-3)GalNAc(b1-3)Gal(a1-4)Gal(b1-4)Glc
# Summary of the method: as §1
# [7] = target: GalNAc(a1-3)GalNAc(b1-3)Gal(a1-4)Gal(b1-4)GlcNAc
# Summary of the method: as §1
# [8] = target: GalNAc(b1-3)Gal
# Summary of the method: as §1
# [9] = target: GalNAc(b1-3)Gal(a1-4)Gal(b1-4)GlcNAc
# Summary of the method: as §1
# [10] = target: GalNAc(b1-3)Gal(a1-4)Gal(b1-4)GlcNAc(b1-3)Gal(b1-4)Glc
# Summary of the method: as §1
# [11] = target: GalNAc(b1-3)Gal(a1-6)Gal(b1-4)Glc
# Summary of the method: as §1
# [12] = target: GalNAc(b1-3)GalNAc
# Summary of the method: as §1
# [13] = target: GalNAc(b1-3)GlcNAc
# Summary of the method: as §1
# [14] = target: GalNAc(b1-4)Gal(b1-4)Glc
# Summary of the method: as §1
# [15] = target: GalNAc(b1-4)GlcNAc
# Summary of the method: as §1
# [16] = target: GalNAc(b1-4)GlcNAc(b1-2)Man
# Summary of the method: as §1
# [17] = target: GalNAc(b1-4)GlcNAc(b1-2)Man(a1-3)[GalNAc(b1-4)GlcNAc(b1-2)Man(a1-6)]Man(b1-4)GlcNAc(b1-4)GlcNAc
# Summary of the method: as §1
# [18] = target: GalNAc(b1-4)GlcNAc(b1-3)GalNAc(b1-4)GlcNAc
# Summary of the method: as §1
# [19] = target: GalNAc(b1-4)GlcNAc6S
# Summary of the method: as §1
# [20] = target: GalNAc(b1-6)GalNAc
# Summary of the method: as §1
# [21] = target: GalNAc3S(b1-4)GlcNAc
# Summary of the method: as §1
# [22] = target: GalNAc3S(b1-4)GlcNAc3S
# Summary of the method: as §1
# [23] = target: GalNAc3S(b1-4)[Fuc(a1-3)]GlcNAc
# Summary of the method: as §1
# [24] = target: GalNAc4S6S(b1-4)GlcNAc
# Summary of the method: as §1
# [25] = target: GalNAc6S(b1-4)GlcNAc
# Summary of the method: as §1
# [26] = target: Glc(a1-4)Glc
# Summary of the method: as §1
# [27] = target: Glc(a1-4)Glc(a1-4)Glc(a1-4)Glc
# Summary of the method: as §1
# [28] = target: Glc(a1-6)Glc(a1-6)Glc
# Summary of the method: as §1
# [29] = target: Glc(a1-6)Glc(a1-6)Glc(a1-6)Glc
# Summary of the method: as §1
# [30] = target: Glc(b1-4)Glc
# Summary of the method: as §1
# [31] = target: Glc(b1-6)Glc
# Summary of the method: as §1
# [32] = target: GlcA(b1-3)Gal
# Summary of the method: as §1
# [33] = target: GlcA(b1-3)GlcNAc
# Summary of the method: as §1
# [34] = target: GlcA(b1-6)Gal
# Summary of the method: as §1
# [35] = target: GlcA3S(b1-3)Gal(b1-4)GlcNAc(b1-2)Man
# Summary of the method: as §1
# [36] = target: GlcA3S(b1-3)Gal(b1-4)GlcNAc(b1-3)Gal(b1-4)Glc
# Summary of the method: as §1
# [37] = target: GlcNAc(a1-3)Gal(b1-4)GlcNAc
# Summary of the method: as §1
# [38] = target: GlcNAc(a1-4)Gal(b1-3)GlcNAc
# Summary of the method: as §1
# [39] = target: GlcNAc(a1-4)Gal(b1-4)GalNAc
# Summary of the method: as §1
# [40] = target: GlcNAc(a1-4)Gal(b1-4)GlcNAc
# Summary of the method: as §1
# [41] = target: GlcNAc(a1-4)Gal(b1-4)GlcNAc(b1-3)Gal(b1-4)Glc
# Summary of the method: as §1
# [42] = target: GlcNAc(a1-4)Gal(b1-4)GlcNAc(b1-3)Gal(b1-4)GlcNAc
# Summary of the method: as §1
# [43] = target: GlcNAc(a1-4)Gal(b1-4)GlcNAc(b1-3)Gal(b1-4)GlcNAc(b1-3)Gal(b1-4)GlcNAc
# Summary of the method: as §1
# [44] = target: GlcNAc(a1-4)Gal(b1-4)GlcNAc(b1-3)Gal(b1-4)[Fuc(a1-3)]GlcNAc(b1-3)Gal(b1-4)[Fuc(a1-3)]GlcNAc
# Summary of the method: as §1
# [45] = target: GlcNAc(a1-6)Gal(b1-4)GlcNAc
# Summary of the method: as §1
binder,measurement,setting,value
Pwp2 (Candida glabrata) (protein) MGSSHHHHHHSSGLVPRGSHMASKNPVELNNVCTFPNDYGRIPGFTVLVGRLGLLISASDYKELLRYPGAFLIATQDTMTTSPNFELTGFPFFTGLYGLTVFPLDLLVELRGYFVPPNSGQYTFTLSDSDDAAIIFLGNPSAFPCGDLQNWPKPSEEDITVTDHLFPSRTLYLIEGVAYPMRIAYYNGIGAGRLNAAFIDPSGTRHTNWEGYIWQYDPCSTCTYS,glycan array binding signal (z-score),[1],-0.419
same,glycan array binding signal (z-score),[2],-0.694
same,glycan array binding signal (z-score),[3],-0.679
same,glycan array binding signal (z-score),[4],-0.695
same,glycan array binding signal (z-score),[5],-0.731
same,glycan array binding signal (z-score),[6],-0.47
same,glycan array binding signal (z-score),[7],-0.401
same,glycan array binding signal (z-score),[8],0.43
same,glycan array binding signal (z-score),[9],-0.501
same,glycan array binding signal (z-score),[10],-0.304
same,glycan array binding signal (z-score),[11],-0.439
same,glycan array binding signal (z-score),[12],1.1
same,glycan array binding signal (z-score),[13],0.401
same,glycan array binding signal (z-score),[14],0.196
same,glycan array binding signal (z-score),[15],0.045
same,glycan array binding signal (z-score),[16],0.217
same,glycan array binding signal (z-score),[17],-0.529
same,glycan array binding signal (z-score),[18],-0.053
same,glycan array binding signal (z-score),[19],-0.448
same,glycan array binding signal (z-score),[20],0.08
same,glycan array binding signal (z-score),[21],0.356
same,glycan array binding signal (z-score),[22],-0.112
same,glycan array binding signal (z-score),[23],-0.648
same,glycan array binding signal (z-score),[24],0.508
same,glycan array binding signal (z-score),[25],-0.497
same,glycan array binding signal (z-score),[26],0.073
same,glycan array binding signal (z-score),[27],-0.136
same,glycan array binding signal (z-score),[28],0.7
same,glycan array binding signal (z-score),[29],0.246
same,glycan array binding signal (z-score),[30],-0.445
same,glycan array binding signal (z-score),[31],1.39
same,glycan array binding signal (z-score),[32],-0.595
same,glycan array binding signal (z-score),[33],-0.467
same,glycan array binding signal (z-score),[34],-0.235
same,glycan array binding signal (z-score),[35],-0.439
same,glycan array binding signal (z-score),[36],-0.956
same,glycan array binding signal (z-score),[37],-0.358
same,glycan array binding signal (z-score),[38],-0.526
same,glycan array binding signal (z-score),[39],-0.366
same,glycan array binding signal (z-score),[40],-0.736
same,glycan array binding signal (z-score),[41],-0.466
same,glycan array binding signal (z-score),[42],-0.584
same,glycan array binding signal (z-score),[43],-0.42
same,glycan array binding signal (z-score),[44],-0.364
same,glycan array binding signal (z-score),[45],-0.524
